# Measurements taken from the supplement of paper PMC8728848.
# The list shows a part of the results.
# Key:
# Assay in all cases: glycan array binding signal (z-score within array); higher = stronger binding
# Conditions in all cases: glycan notation: IUPAC condensed, linker removed
# [1] = target: Fuc(a1-2)Gal
# Procedure, shortened: (§1)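 Glycan array data were curated from 3228 arrays in the Consortium for Functional Glycomics database and kept only where the protein sequence was available. Glycan names were converted to IUPAC-condensed notation, and columns mapping to the same glycan were averaged. The binding signal is a within-array Z-score, averaged across arrays of the same protein sequence at different concentrations or buffers and across linkers. Negative Z-scores can be read as non-binding.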
# [2] = target: Fuc(a1-2)Gal(b1-3)GalNAc
# Procedure, shortened: as §1
# [3] = target: Fuc(a1-2)Gal(b1-3)GalNAc(a1-3)[Fuc(a1-2)]Gal(b1-4)Glc
# Procedure, shortened: as §1
# [4] = target: Fuc(a1-2)Gal(b1-3)GalNAc(a1-3)[Fuc(a1-2)]Gal(b1-4)GlcNAc
# Procedure, shortened: as §1
# [5] = target: Fuc(a1-2)Gal(b1-3)GalNAc(b1-3)Gal
# Procedure, shortened: as §1
# [6] = target: Fuc(a1-2)Gal(b1-3)GalNAc(b1-3)Gal(a1-4)Gal(b1-4)Glc
# Procedure, shortened: as §1
# [7] = target: Fuc(a1-2)Gal(b1-3)GalNAc(b1-4)[Neu5Ac(a2-3)]Gal(b1-4)Glc
# Procedure, shortened: as §1
# [8] = target: Fuc(a1-2)Gal(b1-3)GlcNAc
# Procedure, shortened: as §1
# [9] = target: Fuc(a1-2)Gal(b1-3)GlcNAc(b1-2)Man(a1-3)[Fuc(a1-2)Gal(b1-3)GlcNAc(b1-2)Man(a1-6)]Man(b1-4)GlcNAc(b1-4)GlcNAc
# Procedure, shortened: as §1
# [10] = target: Fuc(a1-2)Gal(b1-3)GlcNAc(b1-2)Man(a1-3)[Fuc(a1-2)Gal(b1-3)GlcNAc(b1-2)Man(a1-6)]Man(b1-4)GlcNAc(b1-4)[Fuc(a1-6)]GlcNAc
# Procedure, shortened: as §1
# [11] = target: Fuc(a1-2)Gal(b1-3)GlcNAc(b1-3)Gal(b1-4)Glc
# Procedure, shortened: as §1
# [12] = target: Fuc(a1-2)Gal(b1-3)GlcNAc(b1-3)GalNAc
# Procedure, shortened: as §1
# [13] = target: Fuc(a1-2)Gal(b1-3)GlcNAc(b1-3)[Fuc(a1-2)Gal(b1-3)GlcNAc(b1-6)]GalNAc
# Procedure, shortened: as §1
# [14] = target: Fuc(a1-2)Gal(b1-3)GlcNAc(b1-3)[Gal(b1-4)GlcNAc(b1-6)]Gal(b1-4)Glc
# Procedure, shortened: as §1
# [15] = target: Fuc(a1-2)Gal(b1-3)GlcNAc(b1-3)[Neu5Ac(a2-6)Gal(b1-4)GlcNAc(b1-6)]Gal(b1-4)Glc
# Procedure, shortened: as §1
# [16] = target: Fuc(a1-2)Gal(b1-3)GlcNAc6S
# Procedure, shortened: as §1
# [17] = target: Fuc(a1-2)Gal(b1-3)[Fuc(a1-4)]GlcNAc
# Procedure, shortened: as §1
# [18] = target: Fuc(a1-2)Gal(b1-3)[Fuc(a1-4)]GlcNAc(b1-2)Man(a1-3)[Fuc(a1-2)Gal(b1-3)[Fuc(a1-4)]GlcNAc(b1-2)Man(a1-3)]Man(b1-4)GlcNAc(b1-4)GlcNAc
# Procedure, shortened: as §1
# [19] = target: Fuc(a1-2)Gal(b1-3)[Fuc(a1-4)]GlcNAc(b1-2)Man(a1-3)[Fuc(a1-2)Gal(b1-3)[Fuc(a1-4)]GlcNAc(b1-2)Man(a1-6)]Man(b1-4)GlcNAc(b1-4)[Fuc(a1-6)]GlcNAc(b1-4)[Fuc(a1-6)]GlcNAc
# Procedure, shortened: as §1
# [20] = target: Fuc(a1-2)Gal(b1-3)[Fuc(a1-4)]GlcNAc(b1-3)[Fuc(a1-3)[Gal(b1-4)]GlcNAc(b1-6)]Gal(b1-4)Glc
# Procedure, shortened: as §1
# [21] = target: Fuc(a1-2)Gal(b1-3)[Fuc(a1-4)]GlcNAc(b1-3)[Gal(b1-4)GlcNAc(b1-6)]Gal(b1-4)Glc
# Procedure, shortened: as §1
# [22] = target: Fuc(a1-2)Gal(b1-4)Fuc(a1-3)]GlcNAc(b1-2)Man(a1-3)[Fuc(a1-2)Gal(b1-4)[Fuc(a1-3)]GlcNAc(b1-2)Man(a1-6)]Man(b1-4)GlcNAc(b1-4)GlcNAc
# Procedure, shortened: as §1
# [23] = target: Fuc(a1-2)Gal(b1-4)Glc
# Procedure, shortened: as §1
# [24] = target: Fuc(a1-2)Gal(b1-4)Glc6S
# Procedure, shortened: as §1
# [25] = target: Fuc(a1-2)Gal(b1-4)GlcNAc
# Procedure, shortened: as §1
# [26] = target: Fuc(a1-2)Gal(b1-4)GlcNAc(b1-2)Man
# Procedure, shortened: as §1
# [27] = target: Fuc(a1-2)Gal(b1-4)GlcNAc(b1-2)Man(a1-3)[Fuc(a1-2)Gal(b1-4)GlcNAc(b1-2)Man(a1-6)]Man(b1-4)GlcNAc(b1-4)GlcNAc
# Procedure, shortened: as §1
# [28] = target: Fuc(a1-2)Gal(b1-4)GlcNAc(b1-2)Man(a1-3)[Fuc(a1-2)Gal(b1-4)GlcNAc(b1-2)Man(a1-6)]Man(b1-4)GlcNAc(b1-4)[Fuc(a1-6)]GlcNAc
# Procedure, shortened: as §1
# [29] = target: Fuc(a1-2)Gal(b1-4)GlcNAc(b1-2)[Fuc(a1-2)Gal(b1-4)GlcNAc(b1-4)]Man(a1-3)[Fuc(a1-2)Gal(b1-4)GlcNAc(b1-2)Man(a1-6)]Man(b1-4)GlcNAc(b1-4)GlcNAc
# Procedure, shortened: as §1
# [30] = target: Fuc(a1-2)Gal(b1-4)GlcNAc(b1-3)Gal(b1-4)GlcNAc
# Procedure, shortened: as §1
# [31] = target: Fuc(a1-2)Gal(b1-4)GlcNAc(b1-3)Gal(b1-4)GlcNAc(b1-2)Man(a1-3)[Fuc(a1-2)Gal(b1-4)GlcNAc(b1-3)Gal(b1-4)GlcNAc(b1-2)Man(a1-6)]Man(b1-4)GlcNAc(b1-4)GlcNAc
# Procedure, shortened: as §1
# [32] = target: Fuc(a1-2)Gal(b1-4)GlcNAc(b1-3)Gal(b1-4)GlcNAc(b1-3)Gal(b1-4)GlcNAc
# Procedure, shortened: as §1
# [33] = target: Fuc(a1-2)Gal(b1-4)GlcNAc(b1-3)GalNAc
# Procedure, shortened: as §1
# [34] = target: Fuc(a1-2)Gal(b1-4)GlcNAc(b1-3)[Fuc(a1-2)Gal(b1-4)GlcNAc(b1-6)]GalNAc
# Procedure, shortened: as §1
# [35] = target: Fuc(a1-2)Gal(b1-4)GlcNAc(b1-3)[Fuc(a1-3)[Gal(b1-4)]GlcNAc(b1-6)]Gal(b1-4)Glc
# Procedure, shortened: as §1
# [36] = target: Fuc(a1-2)Gal(b1-4)GlcNAc(b1-6)GalNAc
# Procedure, shortened: as §1
# [37] = target: Fuc(a1-2)Gal(b1-4)GlcNAc6S
# Procedure, shortened: as §1
binder,measurement,setting,value
AMA (Arum maculatun) (protein) MAKLLLLLLLPAIVGLAVPRSAAAVGSNYMLSGETLNTDGRLTNGELTLIMQVDCNLVLYHGGWQSNTANNGRDCKLTLTDFGELVIKSGTGSTVWSSGSKQSMKGNYAAVVHPEGRLVIYGPSVFKINPSGAGLNGLPLRNIPLTNNMLFSGQVLYGDGTLSARNHKLVMQGDCNMVLYGGKYGWQSNTHGNGKYCFAMLTHKGELVIRDDDFKSVWSSKSSSKQGDYVFILQDDSLAIIYGPAVFSTGSKKMISMVTN,glycan array binding signal (z-score),[1],-0.213
same,glycan array binding signal (z-score),[2],-0.072
same,glycan array binding signal (z-score),[3],-0.214
same,glycan array binding signal (z-score),[4],-0.222
same,glycan array binding signal (z-score),[5],-0.21
same,glycan array binding signal (z-score),[6],-0.22
same,glycan array binding signal (z-score),[7],-0.214
same,glycan array binding signal (z-score),[8],-0.176
same,glycan array binding signal (z-score),[9],0.005
same,glycan array binding signal (z-score),[10],0.153
same,glycan array binding signal (z-score),[11],-0.22
same,glycan array binding signal (z-score),[12],-0.211
same,glycan array binding signal (z-score),[13],-0.202
same,glycan array binding signal (z-score),[14],-0.21
same,glycan array binding signal (z-score),[15],-0.213
same,glycan array binding signal (z-score),[16],-0.207
same,glycan array binding signal (z-score),[17],-0.217
same,glycan array binding signal (z-score),[18],-0.21
same,glycan array binding signal (z-score),[19],0.014
same,glycan array binding signal (z-score),[20],-0.206
same,glycan array binding signal (z-score),[21],-0.217
same,glycan array binding signal (z-score),[22],-0.19
same,glycan array binding signal (z-score),[23],-0.216
same,glycan array binding signal (z-score),[24],-0.208
same,glycan array binding signal (z-score),[25],-0.222
same,glycan array binding signal (z-score),[26],-0.205
same,glycan array binding signal (z-score),[27],0.852
same,glycan array binding signal (z-score),[28],0.1
same,glycan array binding signal (z-score),[29],1.02
same,glycan array binding signal (z-score),[30],-0.221
same,glycan array binding signal (z-score),[31],0.536
same,glycan array binding signal (z-score),[32],-0.154
same,glycan array binding signal (z-score),[33],-0.222
same,glycan array binding signal (z-score),[34],-0.212
same,glycan array binding signal (z-score),[35],-0.213
same,glycan array binding signal (z-score),[36],-0.209
same,glycan array binding signal (z-score),[37],-0.217
